For 18 sequences, binding signal results are on record in paper PMC12820563, “FoxP3 forms a head-to-head dimer in vivo and stabilizes its multimerization on adjacent microsatellites”.

The list shows a part of the results.

In this experiment the target is T1, MBP-FoxP1dN (Mus musculus, UniProt P58462 326-579).
T1 sequence: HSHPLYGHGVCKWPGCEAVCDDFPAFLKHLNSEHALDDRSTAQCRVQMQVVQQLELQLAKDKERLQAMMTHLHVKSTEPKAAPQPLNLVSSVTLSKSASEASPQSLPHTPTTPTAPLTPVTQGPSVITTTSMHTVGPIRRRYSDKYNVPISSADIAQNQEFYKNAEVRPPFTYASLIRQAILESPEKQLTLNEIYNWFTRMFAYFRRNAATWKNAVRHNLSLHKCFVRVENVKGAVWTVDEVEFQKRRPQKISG
The experiment is described as follows: PD-seq (MBP pull-down with sequencing); 20 mM Tris-HCl pH 7.5, 100 mM NaCl, 1.5 mM MgCl2, 0.4 uM protein, 0.1 uM dsDNA library, 30 min, room temperature, amylose pull-down; high values mean tight binding. The conditions noted are these: protein: recombinant; tags: His6-MBP; chain copies: 2; dsDNA, one strand shown. In a few lines: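 Amylose resin was used to capture complexes formed during 30 min at room temperature in Tris pH 7.5 buffer with NaCl and MgCl2 between 0.4 µM His6-MBP-tagged mouse FoxP3 or FoxP1 fragment lacking the N-terminus, expressed in E. coli, and 0.1 µM Klenow-filled double-stranded degenerate DNA library. After three washes, the DNA was released with proteinase K, barcoded by PCR and sequenced on Illumina. Binding is pooled-replicate reads-per-million enrichment, pull-down over input.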
With “GATGATTGTTCTCCCAGCTGATGAATTCTAAAGTTCGAGTAAACAAATTTTCCTAATCTTTCTGTTCAAGCGCCATCTAC”, the binding signal was 0.849 RPM ratio (pull-down/input).

“GATGATTGTTCTCCCAGCTGATGAATTCGTTATGTCGAGTAAACAAATTTTCCTAATCTTTCTGTTCAAGCGCCATCTAC”: the binding signal was 1.04 RPM ratio (pull-down/input).

Take “GATGATTGTTCTCCCAGCTGATGAATTTAGCGAATCGAGTAAACAAATTTTCCTAATCTTTCTGTTCAAGCGCCATCTAC”: the binding signal was 0.991 RPM ratio (pull-down/input).

Turning to “GATGATTGTTCTCCCAGCTGATGAATTTGAATATTCGAGTAAACAAATTTTCCTAATCTTTCTGTTCAAGCGCCATCTAC”, the binding signal is 0.953 RPM ratio (pull-down/input).

As for “GATGATTGTTCTCCCAGCTGATGAATTAGCAAATTCGAGTAAACAAATTTTCCTAATCTTTCTGTTCAAGCGCCATCTAC”, the binding signal was 0.949 RPM ratio (pull-down/input).

Take “GATGATTGTTCTCCCAGCTGATGAATTGCGTTAATCGAGTAAACAAATTTTCCTAATCTTTCTGTTCAAGCGCCATCTAC”: the binding signal is 1.22 RPM ratio (pull-down/input).

As to “GATGATTGTTCTCCCAGCTGATGAATTTAGCGTTTCGAGTAAACAAATTTTCCTAATCTTTCTGTTCAAGCGCCATCTAC”, the binding signal was 0.93 RPM ratio (pull-down/input).

For “GATGATTGTTCTCCCAGCTGATGAATTGTCGTATTCGAGTAAACAAATTTTCCTAATCTTTCTGTTCAAGCGCCATCTAC”, the binding signal was 1.14 RPM ratio (pull-down/input).

Take “GATGATTGTTCTCCCAGCTGATGAATTATCATGTTCGAGTAAACAAATTTTCCTAATCTTTCTGTTCAAGCGCCATCTAC”: the binding signal is 1.07 RPM ratio (pull-down/input).

On to “GATGATTGTTCTCCCAGCTGATGAATTGCCGATATCGAGTAAACAAATTTTCCTAATCTTTCTGTTCAAGCGCCATCTAC”, for which the binding signal was 1.06 RPM ratio (pull-down/input).

On to “GATGATTGTTCTCCCAGCTGATGAATTGCGACTCTCGAGTAAACAAATTTTCCTAATCTTTCTGTTCAAGCGCCATCTAC”, for which the binding signal is 0.997 RPM ratio (pull-down/input).

Take “GATGATTGTTCTCCCAGCTGATGAATTTAATAGGTCGAGTAAACAAATTTTCCTAATCTTTCTGTTCAAGCGCCATCTAC”: the binding signal is 0.825 RPM ratio (pull-down/input).

For “GATGATTGTTCTCCCAGCTGATGAATTTAGCATCTCGAGTAAACAAATTTTCCTAATCTTTCTGTTCAAGCGCCATCTAC”, the binding signal is 1.26 RPM ratio (pull-down/input).

Turning to “GATGATTGTTCTCCCAGCTGATGAATTACATCGCTCGAGTAAACAAATTTTCCTAATCTTTCTGTTCAAGCGCCATCTAC”, the binding signal was 1.07 RPM ratio (pull-down/input).

Turning to “GATGATTGTTCTCCCAGCTGATGAATTGCATGCGTCGAGTAAACAAATTTTCCTAATCTTTCTGTTCAAGCGCCATCTAC”, the binding signal is 1.24 RPM ratio (pull-down/input).

For the sequence “GATGATTGTTCTCCCAGCTGATGAATTCACGATTTCGAGTAAACAAATTTTCCTAATCTTTCTGTTCAAGCGCCATCTAC”, the binding signal is 0.89 RPM ratio (pull-down/input).

Consider “GATGATTGTTCTCCCAGCTGATGAATTGGGGTTGTCGAGTAAACAAATTTTCCTAATCTTTCTGTTCAAGCGCCATCTAC”, for which the binding signal is 0.968 RPM ratio (pull-down/input).

Regarding “GATGATTGTTCTCCCAGCTGATGAATTTGACCGATCGAGTAAACAAATTTTCCTAATCTTTCTGTTCAAGCGCCATCTAC”, the binding signal was 0.841 RPM ratio (pull-down/input).
